Assays:
NHERF1 [1] = target: T1, NHERF1 (UniProt O14745 1-358); test: ITC
T1 sequence (looked up): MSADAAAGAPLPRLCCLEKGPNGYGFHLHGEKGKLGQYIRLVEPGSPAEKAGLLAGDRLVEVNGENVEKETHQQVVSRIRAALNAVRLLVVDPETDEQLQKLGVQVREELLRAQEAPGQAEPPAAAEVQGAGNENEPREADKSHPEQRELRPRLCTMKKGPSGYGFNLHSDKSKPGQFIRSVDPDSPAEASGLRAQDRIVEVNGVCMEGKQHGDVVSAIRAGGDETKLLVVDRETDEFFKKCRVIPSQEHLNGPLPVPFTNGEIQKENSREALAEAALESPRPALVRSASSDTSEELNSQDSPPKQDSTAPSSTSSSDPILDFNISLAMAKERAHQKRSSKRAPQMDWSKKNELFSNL

NHERF1 [2] = target: T1, NHERF1; test: SPR

Kd (NHERF1 [1]): 17.8 ± 6.8 nM
Kd (NHERF1 [2]): 25.8 ± 1.8 nM
B1: FERM domain of Ezrin (domain or fragment)
chain: not shown
